The values that follow come from the RNAGym collection of RNA variant scans (doi:10.1073/pnas.2313332121).

Variants at the floor of the assay are shown more often than the library holds them.

B1: TPR 5TU (parent)
chain: GGAUCUUCUCGAUCUAACAAAAAAGACAAAUCUGCCACAAAGCUUGAGAGCAUCUUCGGAUGCAGAGGCGGCAGCCUUCGGUGGCGCGAUAGCGCCAACGUUCUCAACUAUGACACGCAAAACGCGUGCUCCGUUGAAUGGAGUUUAUCAUG

Variants of B1 are the subject of this series. The series can be described thus: polymerase ribozyme fitness, log enrichment relative to wild type (log ratio); higher = more active; in vitro selection for triplet polymerase activity. An outline of the steps:
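In triplicate, a single round of in vitro selection was run on each mutant library, PCR-built and transcribed, covering one subunit of a heterodimeric triplet polymerase ribozyme. Frozen incubation at −7 °C followed annealing with a biotinylated primer, partner subunit and triplets, and extended constructs were then gel-excised, streptavidin-captured and taken through RT-PCR. Fitness is the logarithm of genotype enrichment over wild-type enrichment, from inverse-variance-weighted replicate averages of Illumina-sequenced inputs and outputs. […] only genotypes with ≥10 input reads and ≥1 read per output were kept.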
Turning to A12G G48U U56A C75U G84U A97G G133U, the “polymerase ribozyme fitness (log ratio)” value is no more than -4.2. Next, U13G A107U: no more than -4.2; A12U G48A U55A G65A G68C C85G G88U C93U A106C U111A G112C C114G C125A: no more than -4.2. For the variant C14U A17G C38U G58C C76U G94A G112C, the “polymerase ribozyme fitness (log ratio)” value was no more than -4.2. Under A12U U31C A66G C79G A89G stands no more than -4.2; under U13A U55A C57U G70A A91G A97G G128U G152A, no more than -4.2.

For A12U C14A A30G U53A A97G C99A G128C, the “polymerase ribozyme fitness (log ratio)” value was no more than -4.2.

For C14A A26U A40U C63G G140U, the “polymerase ribozyme fitness (log ratio)” value is no more than -4.2.

Regarding C14U A19C A49C A52G U53A U77G G86C A110G G124A, the “polymerase ribozyme fitness (log ratio)” value is no more than -4.2. Under C14G C51G U56G G94U G124A A147G A150C stands no more than -4.2. As to A12C C35G, the “polymerase ribozyme fitness (log ratio)” value was no more than -4.2.

Regarding U13C A28C U61A A66U G70C U77A G81U G92U, the “polymerase ribozyme fitness (log ratio)” value was no more than -4.2. Next, C14A G42U A66G C93A G117A: no more than -4.2; C14G C35A G84A C87U: no more than -4.2; U13A U33G G70U G83U C103G C131G: no more than -4.2.

Turning to U13C U15C A26U C69U A73U G92A, the “polymerase ribozyme fitness (log ratio)” value was no more than -4.2. Turning to A12C G58C C69A G84C G143A, the “polymerase ribozyme fitness (log ratio)” value was no more than -4.2. Next, C14U A26U U56C C85U C108A: no more than -4.2; A12U A30U A91G: no more than -4.2; U13C C18U U55G C76U G81C C131G: no more than -4.2. Regarding C14U A17G A39G U44A A107U A150G, the “polymerase ribozyme fitness (log ratio)” value was no more than -4.2. Next, C14G G42U G50C G92A U111G U151G: no more than -4.2; U13C U15G A23C U55A G126A: no more than -4.2. Next, U13G C27U G86A: no more than -4.2; A12G U53A U55A G58C U77G C93A A107U C132A: no more than -4.2; U13G A28C A47G C57U G70C C96U: no more than -4.2. Under A12G A23C G34A A47U G86C stands no more than -4.2. A12U A20G A24U A47G C75G C108U C129A: the “polymerase ribozyme fitness (log ratio)” value was no more than -4.2. Next, C14U A41C G88A G92A U109A C131A U135C G136A: no more than -4.2. Under C14A A49C A52U C72G G84U C87U C123G stands no more than -4.2. For A12U C69U C85G A107C C131U U134G, the “polymerase ribozyme fitness (log ratio)” value is no more than -4.2. A12G U33A A47C A73C U77G G94U C108G: the “polymerase ribozyme fitness (log ratio)” value is no more than -4.2. Turning to U13C C54U A89U C95G C99A, the “polymerase ribozyme fitness (log ratio)” value is no more than -4.2. Next, C14A A29C A52G C85U C96U C108G C131A U135A U146A: no more than -4.2. For A12G U45A A120U G124A G141U U148G, the “polymerase ribozyme fitness (log ratio)” value was no more than -4.2. Under C14G A17C G58A A64U U90G stands no more than -4.2. Under U13G A29G C87U G94C U127A U130C A150G stands no more than -4.2; under C14G A52C A60G G67A C85U C93U G133A, no more than -4.2. Next, U13A G42C G100A C118U: no more than -4.2.

For A12G A49C C51G U55A G58A U77C C79G G86C C95G, the “polymerase ribozyme fitness (log ratio)” value was no more than -4.2.

Take C14G A28U C54U G84A U144G: the “polymerase ribozyme fitness (log ratio)” value is no more than -4.2.

As to C14G C35G C96G G133U G143A, the “polymerase ribozyme fitness (log ratio)” value was no more than -4.2.

Take U13G C18G A52G C57A G94U G117U A121C C131G: the “polymerase ribozyme fitness (log ratio)” value is no more than -4.2.

On to A12U G83C G136C, for which the “polymerase ribozyme fitness (log ratio)” value was no more than -4.2. As for A12U A22U U90G C114G, the “polymerase ribozyme fitness (log ratio)” value is no more than -4.2. Next, A12U A20G G50A C76U G88C A119C U135C U144A: no more than -4.2; A12U C85G U134A G143C: no more than -4.2. Under A12C C32U U45A A73G G81C C85G stands no more than -4.2; under A12C A21U C43A G48U G58U G70A C95U A120C, no more than -4.2; under C14G U61A G86A, no more than -4.2. Under C14U A17G A22G U31C G84A G86U C99A stands no more than -4.2. Turning to A12G A30G U45A G86A, the “polymerase ribozyme fitness (log ratio)” value was no more than -4.2. Next, C14G A39G C57G C93G A121U: no more than -4.2. Under C14G A19U G50C U56A G92U stands no more than -4.2; under A12U C27G G84C G143C, no more than -4.2. Under A12C C54U G70A A91U C116A G117U A121U U139G A142C stands no more than -4.2; under U13G A26C A37U C95U U148G, no more than -4.2. A12U G83A A89U G92C C118G U139A: the “polymerase ribozyme fitness (log ratio)” value was no more than -4.2. With C14G U55A U56C G68U A91U, the “polymerase ribozyme fitness (log ratio)” value was no more than -4.2. Under A12U G25C C38U C54U C75G C93A A121U C149U A150G stands no more than -4.2; under A12C A19C A20U U44G G50A G59C C123U U135A, no more than -4.2; under A12U G46A U104C A110G A119G, no more than -4.2. Next, C14G A16U A17C G117U G141C: no more than -4.2; C14U A24C C79A C85U G143C: no more than -4.2; A12G C51G U61G C99A A113G C125U: no more than -4.2. Under C14G A30U A52C C87U C96G stands no more than -4.2; under U13A C85G A106U A122C G136C, no more than -4.2; under U13A C27U A41U C76A, no more than -4.2. Consider A12C C69G G70A C96U A110U, for which the “polymerase ribozyme fitness (log ratio)” value is no more than -4.2. Under C14U A26U A39C C57A C63A C116U U144C stands no more than -4.2; under C14U A20U A29U A47C U56A U61G U82G, no more than -4.2; under U13G C27A C36U A47U G58U C69G C93G C96G U148A, no more than -4.2. Under C14G U45A C76U C85G C103A U139A G143U stands no more than -4.2; under C14A U45G C96A C129G, no more than -4.2; under C14G C27U G74A C85U, no more than -4.2. Under A12U A26G C32A G81U C85U A106C C108A C114U G136C G141A A142U stands no more than -4.2; under A12G G46C C69G G88U, no more than -4.2. With A12U C87A G141C, the “polymerase ribozyme fitness (log ratio)” value was no more than -4.2. Next, C14G A29G G80C C87U: no more than -4.2.

U13G C14U A28G A40U C51A A52U U55A C57A G71C C85G C114G: the “polymerase ribozyme fitness (log ratio)” value is no more than -4.2. With C14U A40U U61A G84A A89G, the “polymerase ribozyme fitness (log ratio)” value was no more than -4.2.

For C14A A40G C69G A91G, the “polymerase ribozyme fitness (log ratio)” value was no more than -4.2. Next, A12U A24U A41G C85A G92C: no more than -4.2. As for C14A A49U C76A C79A C96U C103A C116G G117A A121G A122U U139C C149G, the “polymerase ribozyme fitness (log ratio)” value is no more than -4.2.
